# In PubChem BioAssay AID875 (National Center for Advancing Translational Sciences (NCATS), 2007):
# Where “and” joins values, the source holds several entries; their conditions need not be identical. Identical values can stand only once. Hit rate of the full screen: of about 75,000 compounds, about 35 (0.05%) were called active. Calls come from the whole dose curve; as a rule, active = well fitted inhibition curve with a large enough effect; inconclusive = small, poorly fitted or top-dose-only effect; inactive = no such curve, though single readings can be large or run the other way. The entries are a selection whose mix differs from that of the whole data set. Some structures have more than one record in an assay (separate samples or runs), and their calls can disagree.
# Target: Breast cancer type 1 susceptibility protein (Homo sapiens) (UniProt P38398)
# Assay: qHTS Assay for Inhibitors of BRCT-Phosphoprotein Interaction (Green Fluorophore)
# Conditions: BRCA1 BRCT-phosphopeptide binding, green fluorescence polarization; series mostly up to 76.9 µM; activity change, negative = inhibition: at the top concentration
# Procedure: NIH Molecular Libraries Screening Centers Network [MLSCN]
# NIH Chemical Genomics Center [NCGC]
# PI Name: Natarajan, Amarnath; University of Texas
# A complex of BRCT (C-terminal portion of BRCA1, MW ~35 kDa, His-tagged) and fluorescently labeled pBACH1 phosphorylated 10 aa peptide fragment of BACH1, a helicase implicated in DNA repair, is incubated with library members. Inhibitors of BRCT-pBACH1 binding are detected by a decrease in the fluorescence polarization (FP) of the fluorophore. In order to minimize the effect of fluorescence artifacts and to increase the overall robustness of the screen, the compound library members were incubated in separate reactions with fluorescein labeled probe-protein complexes. Protein and labeled probes were supplied by Dr. Amarnath Natarajan, Department of Pharmacology and Toxicology, University of Texas Medical Branch Galveston, TX.
# Assay Buffer: 16mM Na2HPO4, 4 mM NaH2PO4, 150 mM NaCl, 1 mM EDTA, 1 mM DTT, 0.02% NaN3, and 0.01% Tween 20 at pH 7.3.
# 100 nM labeled decapeptide/250 nM protein in columns 1, 2, 5 - 48. Titration of unlabeled decapeptide control (from 10 mM, then 1:2 dilution in duplicate) pin-transferred to column 2, rows 1 to 16. Column 1 is neutral.
# Three uL of reagents were dispensed to 1536-well Greiner black solid-bottom plates. Compounds and controls (23 nL) were transferred
# via Kalypsys PinTool. The plates were incubated for 12 min at room temperature, and then read on ViewLux (Perkin-Elmer) High throughput CCD imager using FITC for the fluorescein-labeled decapeptide probe polarization filter sets. During dispense, reagent bottles were kept submerged into 4 deg C water bath and all liquid lines were covered with aluminum foil to minimize probe and protein degradation. All screening operations were performed on a Kalypsys robotic system (Kalypsys, Inc., San Diego, CA) containing one RX-130 and two RX-90 anthropomorphic robotic arms. The timing and order of assay plates passing through the screening system were adjusted such that each compound library plate was assayed against the fluorescein- and rhodamine-labeled assay systems at immediately adjacent time points.
# Potency is the fitted concentration of half-maximal effect.
# UniProt P38398, sequence (P38398 whole entry, looked up): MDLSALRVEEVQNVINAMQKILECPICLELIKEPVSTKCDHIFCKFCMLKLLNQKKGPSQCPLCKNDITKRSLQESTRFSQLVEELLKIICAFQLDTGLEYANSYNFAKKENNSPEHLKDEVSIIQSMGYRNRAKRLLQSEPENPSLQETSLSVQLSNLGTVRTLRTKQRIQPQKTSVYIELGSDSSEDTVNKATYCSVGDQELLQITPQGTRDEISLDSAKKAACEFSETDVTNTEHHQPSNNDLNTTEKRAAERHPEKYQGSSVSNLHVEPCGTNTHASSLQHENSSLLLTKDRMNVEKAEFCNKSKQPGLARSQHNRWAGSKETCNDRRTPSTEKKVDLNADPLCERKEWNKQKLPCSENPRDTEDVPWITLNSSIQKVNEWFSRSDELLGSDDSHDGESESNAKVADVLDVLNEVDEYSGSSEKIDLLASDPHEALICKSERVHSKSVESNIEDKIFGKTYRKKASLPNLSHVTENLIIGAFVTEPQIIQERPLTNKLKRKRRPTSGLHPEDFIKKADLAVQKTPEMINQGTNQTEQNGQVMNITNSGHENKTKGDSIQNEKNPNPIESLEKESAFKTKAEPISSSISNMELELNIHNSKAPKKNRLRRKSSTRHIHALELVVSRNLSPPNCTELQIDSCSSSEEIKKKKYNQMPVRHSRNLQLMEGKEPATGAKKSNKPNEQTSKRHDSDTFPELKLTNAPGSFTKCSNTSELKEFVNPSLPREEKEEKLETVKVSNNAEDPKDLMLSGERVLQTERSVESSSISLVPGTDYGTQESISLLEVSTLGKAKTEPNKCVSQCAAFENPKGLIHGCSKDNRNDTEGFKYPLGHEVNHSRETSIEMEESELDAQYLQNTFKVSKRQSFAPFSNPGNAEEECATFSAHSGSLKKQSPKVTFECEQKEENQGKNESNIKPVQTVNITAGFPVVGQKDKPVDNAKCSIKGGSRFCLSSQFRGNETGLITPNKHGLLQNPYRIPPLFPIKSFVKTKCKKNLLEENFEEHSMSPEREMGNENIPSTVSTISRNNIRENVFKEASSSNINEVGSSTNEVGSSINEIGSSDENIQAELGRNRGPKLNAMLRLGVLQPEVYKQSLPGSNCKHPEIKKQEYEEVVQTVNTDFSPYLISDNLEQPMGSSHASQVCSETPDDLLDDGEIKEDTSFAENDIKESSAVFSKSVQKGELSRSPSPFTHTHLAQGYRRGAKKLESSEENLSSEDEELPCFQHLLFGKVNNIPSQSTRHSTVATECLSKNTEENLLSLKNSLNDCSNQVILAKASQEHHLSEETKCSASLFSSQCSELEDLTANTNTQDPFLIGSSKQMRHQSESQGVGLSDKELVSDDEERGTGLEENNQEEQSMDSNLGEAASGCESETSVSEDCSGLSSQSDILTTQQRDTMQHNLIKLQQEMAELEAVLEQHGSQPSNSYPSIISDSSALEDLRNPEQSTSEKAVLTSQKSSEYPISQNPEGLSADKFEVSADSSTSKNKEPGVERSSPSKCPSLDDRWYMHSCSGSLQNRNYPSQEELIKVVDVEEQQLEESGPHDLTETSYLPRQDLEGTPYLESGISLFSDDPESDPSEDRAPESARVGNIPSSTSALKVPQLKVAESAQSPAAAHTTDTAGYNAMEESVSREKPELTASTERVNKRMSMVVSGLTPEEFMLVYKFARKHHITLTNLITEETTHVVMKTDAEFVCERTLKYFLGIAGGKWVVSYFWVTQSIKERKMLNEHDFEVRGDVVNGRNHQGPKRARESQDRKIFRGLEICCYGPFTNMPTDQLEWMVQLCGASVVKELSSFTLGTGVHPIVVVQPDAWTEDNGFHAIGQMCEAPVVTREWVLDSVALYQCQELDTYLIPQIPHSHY
SMILES,"activity change, negative = inhibition",Potency
CN(C)[C@@H]1C(=O)C(C(N)=O)=C(O)[C@]2(O)C(=O)C3=C(O)c4c(O)cccc4[C@@](C)(O)[C@H]3[C@H](O)[C@@H]12,inactive: 32.1% [at 34.4 µM],
CN(C)[C@@H]1C(=O)C(C(N)=O)=C(O)[C@@]2(O)C(=O)C3=C(O)c4c(O)cccc4[C@@](C)(O)[C@H]3[C@H](O)[C@@H]12,inactive: 0.88%,
N#CC1=C(N)Oc2n[nH]c(-c3cccs3)c2C1c1ccco1 (centres undefined),inactive: 56.1%,
N#C/C(=C\c1ccc(O)c(O)c1)C(N)=S,inactive,
O=c1[nH]c(=O)n(Cc2ccccc2)c(O)c1C=NCCCn1ccnc1,inactive: 39.4%,
COc1ccc2[nH]cc(C3=CCNCC3)c2c1,inactive: 44.7%,
CC[n+]1c(-c2ccccc2)c2cc(N)ccc2c2ccc(N)cc21,inactive: -5.09%,
COc1cc2ccccc2c2cc([N+](=O)[O-])oc12,inactive: 56% [at 15.4 µM],
CN(C)c1ccc(/C=C2\CCCN=C2c2cccnc2)cc1,inactive: 238%,
CN(C)[C@H]1C(=O)C(C(N)=O)=C(O)[C@]2(O)C(=O)C3=C(O)c4c(O)cccc4[C@@](C)(O)[C@H]3C[C@@H]12,inactive: 0.537% [at 34.4 µM],
C[n+]1c2cc(N)ccc2cc2ccc(N)cc21,,active: 1.26 µM
O=C(O)c1ccccc1-c1c2cc(Br)c(=O)cc-2oc2[c]([Hg])c(O)c(Br)cc12,,active: 2 µM and active: 794 nM
O=C(Cn1ncc2c3ccccc3n(Cc3cccc(Cl)c3)c2c1=O)N1CCC2(CC1)OCCO2,inactive: 44.2%,
CC1=NCCc2c1[nH]c1cc(O)ccc21,inactive: -15% [at 3.08 µM],
CN(N=O)c1ccc(O)c(O)c1,,active: 10 µM
CCC(=NC1CC1)c1c(O)n(C2CCCCC2)c(=O)[nH]c1=O,inactive: 53.2%,
CN(C)C1C(=O)C(C(N)=O)=C(O)[C@@]2(O)C(=O)C3=C(O)c4c(O)cccc4[C@@](C)(O)C3C[C@@H]12 (some centres undefined),inactive: 1.08%,
CN(C)C1C(=O)C(C(N)=O)=C(O)[C@@]2(O)C(=O)C3=C(O)c4c(O)cccc4[C@](C)(O)C3C(O)C12 (some centres undefined),inactive: -0.0095% [at 3.08 µM],
CN(C)C1C(=O)C(C(N)=O)=C(O)[C@@]2(O)C(=O)C3=C(O)c4c(O)cccc4[C@@](C)(O)C3CC12 (some centres undefined),inactive: -9.96% [at 3.08 µM],
